# A lower IC50 marks a more sensitive line; a limit (>, <) means that the fit lies beyond the doses tested. AUC sums up the same curve from the lowest dose to the 256-fold higher top dose; the more sensitive the line, the further below 1. For part of these data: Any top dose called inferred was calculated from the reported fits.
# Key:
# Test in all cases: Viability of human cancer cell lines after 72 h of drug (GDSC screen)
# AV-951 = compound: COc1cc2nccc(Oc3ccc(NC(=O)Nc4cc(C)on4)c(Cl)c3)c2cc1OC [AV-951]; conditions: top dose 0.128 µM; top dose inferred
# Description: (§1)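 Human cancer cell lines in 384-well plates, medium with 10% serum, drug for 72 h over a 256-fold dose range (nine 2-fold or five 4-fold steps up to the top dose). Adherent lines were fixed and stained with the nucleic acid dye Syto60, suspension lines read with resazurin; signal relative to control wells, capped at 0 and 100%. One two-parameter sigmoid per drug and line, fitted in a mixed model over all curves with the slope shared within a line.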
# I-BET-762 = compound: CCNC(=O)C[C@@H]1N=C(c2ccc(Cl)cc2)c2cc(OC)ccc2-n2c(C)nnc21 [I-BET-762]; conditions: top dose 20 µM; top dose inferred
# Description: as §1
# HG-6-64-1 = compound: CCN1CCN(Cc2ccc(NC(=O)c3ccc(C)c(/C=C/c4cnc5[nH]ccc5c4OC)c3)cc2C(F)(F)F)CC1 [HG-6-64-1]; conditions: top dose 5.12 µM; top dose inferred
# Description: as §1
# Trametinib = compound: CC(=O)Nc1cccc(-n2c(=O)n(C3CC3)c(=O)c3c(Nc4ccc(I)cc4F)n(C)c(=O)c(C)c32)c1 [Trametinib]; conditions: top dose 1 µM
# Description: as §1
# MS-275 = compound: Nc1ccccc1NC(=O)c1ccc(CNC(=O)OCc2cccnc2)cc1 [MS-275]; conditions: top dose 5 µM; top dose inferred
# Description: as §1
# KIN001-244 = compound: O=C(NC(COc1ccc2[nH]c(=O)[nH]c2c1)c1ccccc1)c1cccn(Cc2ccc(F)c(F)c2)c1=O [KIN001-244]; conditions: top dose 20 µM; top dose inferred
# Description: as §1
# PF-4708671 = compound: CCc1cncnc1N1CCN(Cc2nc3ccc(C(F)(F)F)cc3[nH]2)CC1 [PF-4708671]; conditions: top dose 10 µM; top dose inferred
# Description: as §1
Cell Line,AUC (AV-951),IC50 (AV-951) [nM],AUC (I-BET-762),IC50 (I-BET-762) [nM],AUC (HG-6-64-1),IC50 (HG-6-64-1) [nM],AUC (Trametinib),IC50 (Trametinib) [nM],AUC (MS-275),IC50 (MS-275) [nM],AUC (KIN001-244),IC50 (KIN001-244) [nM],AUC (PF-4708671),IC50 (PF-4708671) [nM]
"L-1236 (Hodgkin lymphoma, suspension)",0.992,> 128,0.814,8830,0.97,> 5120,0.991,> 1000,0.599,558,0.924,> 20000,0.933,> 10000
"LAMA-84 (chronic myeloid leukaemia, suspension)",0.799,62.5,0.546,1670,0.147,24.9,0.934,> 1000,0.624,689,0.703,4720,0.962,> 10000
"LAN-6 (neuroblastoma, adherent)",0.963,> 128,0.935,> 20000,0.972,> 5120,0.644,170,0.777,2390,0.976,> 20000,0.955,> 10000
"LB771-HNC (head and neck, adherent)",0.981,> 128,0.778,10300,0.8,3220,0.842,974,0.884,> 5000,0.851,> 20000,0.966,> 10000
"LB831-BLC (bladder, adherent)",0.981,> 128,0.972,> 20000,0.618,680,0.937,> 1000,0.779,2070,0.889,> 20000,0.949,> 10000
"LB996-RCC (kidney, adherent)",0.982,> 128,0.977,> 20000,0.614,693,0.736,335,0.69,1170,0.922,> 20000,0.868,> 10000
"LB1047-RCC (kidney, adherent)",0.977,> 128,0.98,> 20000,0.678,1080,0.485,56.6,0.698,1220,0.865,> 20000,0.939,> 10000
"LB2241-RCC (kidney, adherent)",0.983,> 128,0.971,> 20000,0.749,1830,0.372,26.6,0.7,1230,0.973,> 20000,0.838,7970
"LB2518-MEL (melanoma, adherent)",0.987,> 128,0.982,> 20000,0.851,4260,0.094,< 3.91,0.674,981,0.917,> 20000,0.987,> 10000

# Source: the supplement of paper PMC4967469
